Laboratory results as given in PubChem BioAssay AID624296 (National Center for Advancing Translational Sciences (NCATS), 2012).
In all, about 350,000 compounds went through this assay and about 9,900 (2.8%) were called active. Inconclusive results, whose numbers are uncertain, are shown with a selection of clear calls. Calls follow the shape of the dose curve; as a rule, active = well fitted activation curve with a large enough effect; inconclusive = small, poorly fitted or top-dose-only effect; inactive = no such curve, though single readings can be large or run the other way. No potency is given beside an inconclusive call; the fits are too rough.

assay: A quantitative high throughput screen for small molecules that induce DNA re-replication in MCF 10a normal breast cells.; also: nearly all actives have a fitted effect of over 50% in size; as to activity, positive = re-replication: % of control where 0% means no effect; details: MCF 10A DNA re-replication, Hoechst nuclear intensity, 48 h; activity, positive = re-replication: at 46.1 µM (top of the series)
Potency is read from the fitted curve at half-maximal effect; tags tell the direction and shape of the fitted curve.

Row | Structure (SMILES) | Potency | activity, positive = re-replication
1 | COc1ccc(NC(=S)NC(NC(=O)c2cccc(Cl)c2)C(Cl)(Cl)Cl)c([N+](=O)[O-])c1 (stereo not given) | inconclusive [activator, full curve, poor fit] | –
2 | N#CC1(NC(=O)COC(=O)CN2C(=O)c3ccccc3C2=O)CCCCC1 | inconclusive [activator, full curve, poor fit] | –
3 | CCOC(=O)N1CCN(S(=O)(=O)c2ccc(C(=O)N(CCCN(C)C)c3nc4ccc(CC)cc4s3)cc2)CC1 | – | inactive: 10.1%
4 | CCN(C[C@H]1N[C@@](C)(C(=O)OC)[C@H]2C(=O)N(C)C(=O)[C@@H]12)C(=O)Nc1ccc(F)cc1 | inconclusive [activator, full curve, poor fit] | –
5 | O=C(NC(NC(=S)Nc1cccc(Cl)c1)C(Cl)(Cl)Cl)OCc1ccccc1 (stereo not given) | – | inactive: 16.7%
6 | Cn1c(Sc2ccc([N+](=O)[O-])cc2C(F)(F)F)nnc1-c1ccccc1 | – | inactive: 3.85%
7 | CCN(Cc1ccncc1)Cc1c(O)ccc2cc(Br)ccc12 | – | inactive: 14.3%
8 | O=C(NCCCN1CCOCC1)c1ccc(NS(=O)(=O)c2ccccc2)cc1 | – | inactive: -11%
9 | CCc1ccc(S(=O)(=O)Nc2nccs2)cc1 | inconclusive [activator, partial curve, poor fit] | –
10 | C=CC(=O)Oc1ccc(N2Cc3ccccc3C2=O)cc1 | inconclusive [activator, single point] | –
11 | Oc1cccc(Nc2nc(NCC3CCCO3)c3ccccc3n2)c1 (stereo not given) | active: 14.6 µM | –
12 | Cc1cccc(N(C)C(=O)c2cc3c(=O)[nH]c4ccc(C)cc4c3s2)c1 | inconclusive [activator, single point] | –
13 | O=C(Nc1nccs1)c1cc(-c2ccco2)nc2ccccc12 | – | inactive: -1.72%
14 | O=C(NC(=S)N1CCN(Cc2ccc3c(c2)OCO3)CC1)c1ccc(Cl)cc1 | inconclusive [activator, single point] | –
15 | COc1ccccc1CNCc1cc(OC)c(OC)cc1OC | – | inactive: -13.5%
16 | Cc1ccc(C(=O)CC(=O)c2ccc(C(C)(C)C)cc2)cc1 | – | inactive: 9.26%
17 | CCCSc1ccc([C@H]2N[C@@](Cc3ccccc3)(C(=O)OC)[C@H]3C(=O)N(CC)C(=O)[C@@H]23)cc1 | – | inactive: 16.4%
18 | Cc1ccc(C)c(OCC(O)CNC2CCCC2)c1 (stereo not given) | – | inactive: -7.66%
19 | O=C(O)c1nn(CCOc2ccc(Br)cc2)c(=O)c2ccccc12 | inconclusive [activator, single point] | –
20 | CCOc1ccccc1C(=O)N[C@H](C(=O)OCc1cc(=O)oc2cc(C)ccc12)C(C)C | – | inactive: 20.8%
21 | CC1CCCC(NC(=O)c2ccncc2)C1C (stereo not given) | inconclusive [activator, single point] | –
22 | Oc1ccc2ccccc2c1C=NCc1ccccc1 | inconclusive [activator, single point] | –
23 | COc1ccc(Nc2nnc(SCC(=O)NC(=O)Nc3ccc4c(c3)OCCO4)s2)cc1 | active: 13 µM | –
24 | O=C(NNC(=O)c1ccccc1O)c1ccc(Cl)c(S(=O)(=O)N2CCc3ccccc32)c1 | inconclusive [activator, partial curve] | –

Row | Structure (SMILES) | Potency | activity, positive = re-replication
25 | COc1ccc(/C=N/Nc2nc(C)cc(=O)[nH]2)cc1OC | inconclusive [activator, partial curve, poor fit] | –
26 | COc1ccccc1NS(=O)(=O)c1cc(NC(=O)c2ccc3c(c2)OCCO3)ccc1C | inconclusive [activator, single point] | –
27 | Cc1nc(NC(=O)c2ccc(OCC(C)C)cc2)sc1Cc1ccc2c(c1)OCO2 | inconclusive [activator, partial curve, poor fit] | –
28 | Cc1ccc(C(C(=O)NC2CCCC2)N(Cc2ccc3c(c2)OCO3)C(=O)c2snc(C(N)=O)c2N)cc1 (stereo not given) | inconclusive [activator, single point] | –
29 | CCn1c(Oc2ccccc2F)nc2c1c(=O)n(C)c(=O)n2C | inconclusive [activator, single point] | –
30 | CCCN(CC(=O)Nc1cc(Cl)ccc1Cl)C(=O)/C=C/c1cc(OC)ccc1OC | active: 20.6 µM | –
31 | Cc1ccc(-c2c(C)c(-c3ccc(F)cc3)nc(N)c2C#N)o1 | inconclusive [activator, single point] | –
32 | Cc1ccc(Cl)cc1N1CCN(S(=O)(=O)c2c(C)nc3scc(C)n3c2=O)CC1 | inconclusive [activator, full curve, poor fit] | –
33 | Cc1ccccc1OCC(=O)NS(=O)(=O)c1ccc(Cl)cc1 | inconclusive [activator, single point] | –
34 | O=C(CCCCCn1c(=S)[nH]c2cc3c(cc2c1=O)OCO3)N1CCN(Cc2ccccc2)CC1 | active: 20.6 µM | –
35 | COCCNC(=O)C1CCC(CNS(=O)(=O)c2ccc3c(c2)CC(C)N3C(=O)C2CC2)CC1 (stereo not given) | – | inactive: -0.124%
36 | O=C(COC(=O)c1cccc(Oc2ccccc2)c1)NCc1ccco1 | inconclusive [activator, single point] | –
37 | Cc1ccc(C)c(OCCC(=O)Nc2cc(S(=O)(=O)N3CCCCC3)ccc2C)c1 | inconclusive [activator, partial curve] | –
38 | Cc1cc(C(=O)OCC(=O)N2CCC(c3ccccc3)=N2)ccc1[N+](=O)[O-] | inconclusive [activator, partial curve, poor fit] | –
39 | CC1(C)OC(=O)N(c2ccccn2)C1(C)O (stereo not given) | inconclusive [activator, single point] | –
40 | COc1cc(/C=N/N2CCN(Cc3ccc(Cl)cc3)CC2)cc(Br)c1O | – | inactive: -0.398%
41 | Cc1ccc(S(=O)(=O)Nc2ccc(O)c3cccnc23)cc1 | inconclusive [activator, single point] | –
42 | CC(C)(C)c1ccc(C(=O)NC(=S)Nc2ccc(N3CCOCC3)cc2)cc1 | inconclusive [activator, full curve, poor fit] | –
43 | COc1cc2c(=O)n(Cc3ccco3)c(=O)n(CC(=O)c3cccc(Br)c3)c2cc1OC | inconclusive [activator, single point] | –
44 | O=C(CN1C(=O)NC2(CCOc3ccccc32)C1=O)Nc1cccc(Cl)c1 (stereo not given) | – | inactive: 29.5%
45 | CCCCOc1ccc(-c2nnc(-c3ccncc3)o2)cc1 | – | inactive: 5.27%
46 | OCCC1CN(CC(c2ccccc2)c2ccccc2)CCN1C1CCCC1 (stereo not given) | inconclusive [activator, single point] | –
47 | CCN1C(=O)/C(=C\c2nc3ccccc3c(=O)n2-c2ccccc2)c2ccccc21 | inconclusive [activator, partial curve, poor fit] | –
48 | CC1CCN(c2nc(Cl)nc(Nc3ccc([N+](=O)[O-])cc3)n2)CC1 | active: 5.17 µM | –

Row | Structure (SMILES) | Potency | activity, positive = re-replication
49 | CCOC(=O)CSc1nc2cc(C(=O)N3CCC(C(N)=O)CC3)ccc2c(=O)n1C1CCCCC1 | – | inactive: -1.35%
50 | COc1ccccc1C(CCN(Cc1cccs1)C(C)=O)c1ccco1 (stereo not given) | – | inactive: 18.6%
51 | COc1ccc(OC)c(NC(=O)C(C)N2c3cccc4cccc(c34)S2(=O)=O)c1 (stereo not given) | – | inactive: 1.2%
52 | CCOC(=O)c1cc(-c2ccccc2)sc1NC(=S)Nc1cc(C)ccn1 | – | inactive: 2.33%
53 | O=C(c1ccc(Br)cc1)c1sc(N2CCOCC2)nc1-c1ccccc1 | active: 16.4 µM | –
54 | Cc1ccc(Oc2ccc3c(c2)C(=O)N(c2ccc(S(=O)(=O)Nc4nccs4)cc2)C3=O)cc1 | inconclusive [activator, partial curve, poor fit] | –
55 | C[C@]12c3[nH]c4ccccc4c3CCN1C(=O)C(CC(=O)NCc1cccc(C(F)(F)F)c1)C[C@@H]2C(=O)N1CCOCC1 (stereo not given in full) | inconclusive [activator, single point] | –
56 | Cc1ccccc1NC(=O)COC(=O)c1ccc(S(C)(=O)=O)c([N+](=O)[O-])c1 | inconclusive [activator, single point] | –
57 | COCCN(C(=O)c1sc2ccccc2c1Cl)c1c(N)n(CC(C)C)c(=O)[nH]c1=O | – | inactive: 4.82%
58 | CCn1cc(-c2cc(C(=O)O)on2)c(C)n1 | inconclusive [activator, single point] | –
59 | CCCCCN(C(=O)CCC(=O)OC(C)C(=O)c1ccc(CC)cc1)c1c(N)n(CCCC)c(=O)[nH]c1=O (stereo not given) | – | inactive: 3.5%
60 | CC(C)(C)OC(=O)N1CCCC(C(=O)CC#N)C1 (stereo not given) | inconclusive [activator, single point] | –
61 | CC(=O)c1ccc(N2CCN(C(=O)c3cccc(Oc4ccccc4)c3)CC2)cc1 | inconclusive [activator, single point] | –
62 | COc1cccc(CSc2nc3ccncc3[nH]2)c1 | – | inactive: -0.3%
63 | Cn1nnnc1Sc1ncnc2scc(-c3ccsc3)c12 | active: 16.4 µM | –
64 | Cc1ccc(C(=O)N2CCN(c3cccc(C)c3C)CC2)cc1S(=O)(=O)N1CCOCC1 | inconclusive [activator, partial curve, poor fit] | –
65 | Cc1ccc(C)c(N2CCN(C(=O)CCc3nc(-c4ccccc4C(F)(F)F)no3)CC2)c1 | inconclusive [activator, partial curve, poor fit] | –
66 | CCN1CCCC1CNC(=O)C(=O)Nc1ccc(OC)cc1 (stereo not given) | – | inactive: 13.4%
67 | O=S(=O)(/N=C(/Nc1ccc(F)c(F)c1F)c1ccccc1)c1ccccc1 | inconclusive [activator, partial curve, poor fit] | –
68 | COc1cc(C(=O)N2CCCN(C)CC2)cc(OC)c1C | inconclusive [activator, full curve] | –
69 | CN(C)c1cc(C(F)(F)F)nc(-c2ccccn2)n1 | – | inactive: 0.341%
70 | COc1ccccc1-c1nc2s/c(=C\c3cccs3)c(=O)n2n1 | inconclusive [activator, partial curve, poor fit] | –
